Measurements reported in the RNAGym collection of RNA variant scans (doi:10.7554/elife.90254).
Read counts are not given, so values of variants with three or more changes are uncertain.

B1: LINE1-mini (parent)
chain: GGCAGAGCUCAACACAGCGUGGCAAAGUGGCUGUGGCUAGACUGCC

Variants of: B1
Assay: self-cleavage, relative activity (ratio to wild type); higher = more cleavage; in vitro, sequencing; the parent is a self-cleaving ribozyme

**Q.** With GGCAGAGCUCAAGACAGCGUGGCAAAGGGGCUGUGGCUAGAUUGCC [C13G U28G C42U] as the variant, how does the self-cleavage read?
**A.** Its self-cleavage is 0.11.

**Q.** For GGCAGAGCUCAGCACAGCGUGGCAAAGUGGCUGUGGCUAUACUUCA [A12G G40U G44U C46A], which self-cleavage is on record?
**A.** The self-cleavage was 0.

**Q.** With GGUAGAGGUAAACACAGCGUGGGAAAGUGGCUCUGGCUAGAUUGCC [C3U C8G C10A C23G G33C C42U] as the variant, how does the self-cleavage read?
**A.** Its self-cleavage is 0.02.

**Q.** Which self-cleavage does the source give for GGAAGAGCUCAACACAGCGUGGCAAAGUGGCUGUGGCUAGACUGAU [C3A C45A C46U] here?
**A.** The self-cleavage was 0.12.

**Q.** With GGCAGAGCUCAACACAGCGUGUAAAAGUGGCUGUGGCUAGACUGCG [G22U C23A C46G] as the variant, how does the self-cleavage read?
**A.** The self-cleavage was 1.31.

**Q.** Which self-cleavage does the source give for GGCAGAGCUGAACACAUCGUGGUAAAGUGGCUGUGGCUAGACUGCC [C10G G17U C23U] here?
**A.** Its self-cleavage is 0.05.

**Q.** Which self-cleavage does the source give for GGCAGGGCUCAACAUAGCGUGGCAAAGUGGCUGUUGCUAGACUGCC [A6G C15U G35U] here?
**A.** Its self-cleavage is 0.27.

**Q.** For GGUAGAGUUCAAAACAGCGUGGCAAAGUGGCUGUUGCUAGACUGCC [C3U C8U C13A G35U], which self-cleavage is on record?
**A.** The self-cleavage was 0.53.

**Q.** Which self-cleavage does the source give for GGCAGAACUCAACACAGCGUGGCAAAGUGGCUCUGGCUAGACCGCC [G7A G33C U43C] here?
**A.** Its self-cleavage is 0.13.

**Q.** With GGCAGUGCUCAACACAGCAUGGCAAAGUGGCUGUGUCUAGACUGCC [A6U G19A G36U] as the variant, how does the self-cleavage read?
**A.** Its self-cleavage is 0.05.

**Q.** Which self-cleavage does the source give for AGCAGAGCUCGACAUAGCGUGGCAAAGUGGGUGUGGCUAGACUACC [G1A A11G C15U C31G G44A] here?
**A.** Its self-cleavage is 0.03.

**Q.** For GGCAGAGCUCGACACAGCGUGUCAAAGUGCCAGAGGCUAGACUGCC [A11G G22U G30C U32A U34A], which self-cleavage is on record?
**A.** The self-cleavage was 0.

**Q.** With GGCAGAGCUCAACACUGCGUGGCAAAGUGGCUGUGGUUAAACUGCC [A16U C37U G40A] as the variant, how does the self-cleavage read?
**A.** Its self-cleavage is 0.13.

**Q.** Which self-cleavage does the source give for GGCAGAGCUCAACACAGCGUGGCAAAUUGGCUGUGGCUAGACUGGG [G27U C45G C46G] here?
**A.** The self-cleavage was 0.24.

**Q.** Which self-cleavage does the source give for AGCAGAGCUCAACAGAGCGUGGCAAAGUGGCUGUGGCUAGCGUGCC [G1A C15G A41C C42G] here?
**A.** The self-cleavage was 0.06.

**Q.** Which self-cleavage does the source give for GGCUGAGCUCAACACAGCGCGGCAAAGUGGUAGUGGCUAGUCUGCC [A4U U20C C31U U32A A41U] here?
**A.** The self-cleavage was 0.03.

**Q.** With GGCAGAGCCCACCACAGCGUGGCAAAGUGGCUGUGGCUAGACUGGC [U9C A12C C45G] as the variant, how does the self-cleavage read?
**A.** The self-cleavage was 0.01.

**Q.** With GGCAGAGCUCAACACAGUCUGGCAAAGUGGCUAUGGCUUGAGUGCC [C18U G19C G33A A39U C42G] as the variant, how does the self-cleavage read?
**A.** The self-cleavage was 0.04.

**Q.** Which self-cleavage does the source give for GGCAGAGCUCAACACAGCGUGGCAAAGUGGCUUUGGCUAGAAUGCU [G33U C42A C46U] here?
**A.** Its self-cleavage is 0.17.

**Q.** With GGCAGAGCUCAACACAACGUGGCAACGUAGCUGUGCCUAGACUGCC [G17A A26C G29A G36C] as the variant, how does the self-cleavage read?
**A.** Its self-cleavage is 0.05.

**Q.** Which self-cleavage does the source give for GGCAGAGCUCAACACAGCGUGUCAAAGUGGGUGUGGCUAGACUGAC [G22U C31G C45A] here?
**A.** Its self-cleavage is 0.02.

**Q.** Which self-cleavage does the source give for GGCAGAGCUCAACACAGCGUGGCAAAGUGACUGGUGAUAGACUGCC [G30A U34G G35U C37A] here?
**A.** Its self-cleavage is 0.07.

**Q.** Which self-cleavage does the source give for GGCAGUGCUCAACACAGGGUGGCAAAGUGGCUGUGGCUAUACUGCC [A6U C18G G40U] here?
**A.** Its self-cleavage is 0.07.

**Q.** For GGGAGAGCUCAACACGGGAUGGCAAAGUGGCUAGGGCUUGACUGCC [C3G A16G C18G G19A G33A U34G A39U], which self-cleavage is on record?
**A.** Its self-cleavage is 0.02.

**Q.** With GGCAGAGCUCAAGACAGCGUGGCAAAGUGGGUGUGGCUAGAUUGCC [C13G C31G C42U] as the variant, how does the self-cleavage read?
**A.** Its self-cleavage is 0.09.

**Q.** Which self-cleavage does the source give for GGCAGAGCUCAUCACAGCGUGUAAAAGUGGCUGUGCAUAGACUGCC [A12U G22U C23A G36C C37A] here?
**A.** Its self-cleavage is 0.02.

**Q.** For GGCAGUGCUCCACAGAGCGUGGCCAAGUGGCUGUGGCUAGACUGCC [A6U A11C C15G A24C], which self-cleavage is on record?
**A.** The self-cleavage was 0.01.

**Q.** With GGCAGAGCUCAACAGAGCGUGGCAAAGUGGCUGUGGCAAGACUGUC [C15G U38A C45U] as the variant, how does the self-cleavage read?
**A.** Its self-cleavage is 0.1.

**Q.** Which self-cleavage does the source give for GCCAGAGCUUAACACUGCGUGGCAAAGUGGCUGUGGCUAGUCUGCC [G2C C10U A16U A41U] here?
**A.** The self-cleavage was 0.01.

**Q.** For GGCCGAGCUCAACACAGCGUGGCAAAGUGGCUGUGGCUACAACUCC [A4C G40C C42A U43C G44U], which self-cleavage is on record?
**A.** The self-cleavage was 0.11.

**Q.** With GACAGAGGUCAACACAGCGUGGCAAAGUGACUGUGGCUAGACUGCC [G2A C8G G30A] as the variant, how does the self-cleavage read?
**A.** Its self-cleavage is 0.07.

**Q.** With GGAAGAGCUCAACACAGCAUGGCAAAGUGGCUGUGGCUAGAUUGCC [C3A G19A C42U] as the variant, how does the self-cleavage read?
**A.** Its self-cleavage is 0.11.

**Q.** For GGCAGAGAUCAAGCCAGCGUGGCAAAGUGGCUGUGGCUAGACUGCC [C8A C13G A14C], which self-cleavage is on record?
**A.** The self-cleavage was 0.64.

**Q.** Which self-cleavage does the source give for GGCAGAGCUCAACACAGCGUGGCACAGUGGCUGUGGCUUGAGUGCC [A25C A39U C42G] here?
**A.** The self-cleavage was 0.03.

**Q.** With GGGAGUGCUCAACAUAGCGUGGCACAGUGGCUUUGGCGAGACUGCC [C3G A6U C15U A25C G33U U38G] as the variant, how does the self-cleavage read?
**A.** The self-cleavage was 0.11.

**Q.** With GGCAUAGCUCAACACAGCGGGGCAAAGUGGCUGUGGAUAGACUGCC [G5U U20G C37A] as the variant, how does the self-cleavage read?
**A.** Its self-cleavage is 0.01.

**Q.** Which self-cleavage does the source give for GGCAGGGCUCAUCACAUCGUGGCAAAGCGGCUGUUGCUACACUGCC [A6G A12U G17U U28C G35U G40C] here?
**A.** The self-cleavage was 0.02.

**Q.** For GGCAGAGUAAAACACAGCGUGGCAAAGUGGAUGUGGCUAGACUGCC [C8U U9A C10A C31A], which self-cleavage is on record?
**A.** The self-cleavage was 0.01.

**Q.** Which self-cleavage does the source give for GGCCGAGCUUAACACGGCGUGGCAAAGCGGCUUUGGCUAGACUGCC [A4C C10U A16G U28C G33U] here?
**A.** The self-cleavage was 0.01.

**Q.** Which self-cleavage does the source give for GGCAGAGAUCAACACAGCGUGGCAAAGCGGCUGUAACUAGACUGUC [C8A U28C G35A G36A C45U] here?
**A.** The self-cleavage was 0.01.

**Q.** Which self-cleavage does the source give for GGUAGAGCUCGACACAGCGUUGCAAAGUGGCUGUGGAUAGACUGCC [C3U A11G G21U C37A] here?
**A.** The self-cleavage was 0.02.

**Q.** For GGAAGAGCUCAACACUGCGUGGCAAAGUAGCUGUGGCUAGACUGCC [C3A A16U G29A], which self-cleavage is on record?
**A.** The self-cleavage was 0.22.

**Q.** Which self-cleavage does the source give for GGCUGAGCUCAACACAGCGUGGCCAAAUGGCUUUGGCUAGACUGCC [A4U A24C G27A G33U] here?
**A.** The self-cleavage was 0.17.

**Q.** Which self-cleavage does the source give for GGGACAGCUCAACGCAGCGUGGCAAAGUGGCUGUGGCUAGACUGCC [C3G G5C A14G] here?
**A.** Its self-cleavage is 0.09.

**Q.** With GGCAGAGCUCAACACAGGGUGGCAAAGAGGCUGUGGCUAGACCGCC [C18G U28A U43C] as the variant, how does the self-cleavage read?
**A.** The self-cleavage was 0.08.

**Q.** With GGCAGAGCCCAACACAGCGUGGCAAAGUGGCUGUAGCUAGAUUGCC [U9C G35A C42U] as the variant, how does the self-cleavage read?
**A.** Its self-cleavage is 0.02.

**Q.** Which self-cleavage does the source give for GGCAGAGCUCAACACAGCGCGGAAAAGUGGCUGUGACUAGACUGCC [U20C C23A G36A] here?
**A.** The self-cleavage was 0.11.

**Q.** For GGCAGAGAUCAACACAGCGUUGCAAAGUGGCUCUGGCUAGACUGCC [C8A G21U G33C], which self-cleavage is on record?
**A.** Its self-cleavage is 0.07.

**Q.** Which self-cleavage does the source give for AGCAGAGCUCAACUCAGCGUGGCAUAGUGGCUGUGGCUAGACUGCC [G1A A14U A25U] here?
**A.** The self-cleavage was 0.04.

**Q.** With GACAGAGCUAAAACCAGCGUGGCAAAGUGCCUGUGGCUAGACUGCA [G2A C10A C13A A14C G30C C46A] as the variant, how does the self-cleavage read?
**A.** Its self-cleavage is 0.07.

**Q.** Which self-cleavage does the source give for GGCAGAGCUCAAAACAGCGUGGCAAAGUGGGUUUGGCUAGACUGCU [C13A C31G G33U C46U] here?
**A.** The self-cleavage was 0.

**Q.** Which self-cleavage does the source give for GGCACAGCUUAACACAGCGUGGCAAAGUGGCUGUGGAUGGACUGUC [G5C C10U C37A A39G C45U] here?
**A.** The self-cleavage was 0.01.

**Q.** With GGAAAAGCUCAACAAAGCGUGGCAAAGUGGCUGUGGCGAGACUGCC [C3A G5A C15A U38G] as the variant, how does the self-cleavage read?
**A.** Its self-cleavage is 0.12.

**Q.** Which self-cleavage does the source give for GGCAGAGCUCGACACAGCGUGGCAAAGUAUCUGUGGCUAGACUGCC [A11G G29A G30U] here?
**A.** Its self-cleavage is 0.1.

**Q.** For GGCGGAGCUCAACACGAAGUGGCAAAGUGGCUGUGGCUAGACUGCC [A4G A16G G17A C18A], which self-cleavage is on record?
**A.** Its self-cleavage is 0.

**Q.** Which self-cleavage does the source give for GGCAGAGCUCAACACAGCGUGGGAAACUUGCUGUGGCUAGACUGCC [C23G G27C G29U] here?
**A.** Its self-cleavage is 0.15.
